# Results published in the supplement of paper PMC11417369.
# This is one part of the list.
# Tested on: PfAP2-HC AP2 domain (GST-tagged)
# Assay: gcPBM binding intensity (ln(normalized median fluorescence intensity)); higher = stronger DNA binding
# How it was run: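 Each value is the highest Masliner-normalised natural-log median intensity across replicate spots of either orientation of a probe. The probes were primer-extended double-stranded 36-bp intergenic genomic sequences on an Agilent 4 × 180k array, alongside negative controls, exposed for 1 h to GST-tagged P. falciparum DNA-binding domains expressed in E. coli. Bound protein was picked up with Alexa488 anti-GST antibody and scanned at 488 nm.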
row,Sequence,gcPBM binding intensity (ln)
1,TATTATGTCTAAAATAACATATTAATATATTATTTC [CACACA_negctrl_site285],9.56
2,TTAATATTTTATTTCACACACATAAATGCCCCAAAC [CACACA_site1887],9.9
3,AGAGTTCTCCTATGCACACAAAAAACTTTCATTTAT [CACACA_site4193],9.81
4,AAAAAATACATACATACACACATATATATATATATA [CACACA_site913],10.6
5,TCCTCTTATAATTCGTGTCCACATATATCATACAAT [XGTACX_site1523],9.71
6,ATAAAACAAATGAGTACACACACATAAAAATTGAAA [CACACA_site7949],10.2
7,TACGGATATATATATTGTACATATATATAATATATA [XGTACX_site3156],9.65
8,TATATATATATTAATAGTACATATTATGTAAGCCTA [XGTACX_site2826],9.87
9,TTTTTTTTTTTTTTTGTGCACAATATAATTTTTAAT [GTGCAC_site9747],9.58
10,TTTCAGACAAAAAAAAAAAAAAAAAAGAGGAGAATA [CACACA_negctrl_site254],9.25
11,TTATAATATATATCTGCATGTTGCTTTGGGGCTTTA [TGCATGCA_site712],9.7
12,TATATTAAACAATATACACACATTAATGTAGACATA [CACACA_site8889],9.77
13,GAAAATTCTTAAGGCACACACATATAAGATATATAC [CACACA_site6410],9.99
14,AACCTTTTAAGAGTTGCACACGTACAAAAAAAAAAA [CACACA_site9159],9.71
15,AATAAAAAAAAAAAAAAAAAAAAAAACCTGAGGAGT [CACACA_negctrl_site1140],9.52
16,TTTAAGCAAAGACACACACACATATTTATATTTATA [CACACA_site6295],10.2
17,AAACATTTATACAAAGCACACAATTTTTAACTTTTA [CACACA_site2627],9.62
18,TGTCAAAATATGTATACACACAATTTTTTTTTTTTT [CACACA_site2465],9.87
19,ATTCATTTACCAATGGTGCAATATATTTTTATAATG,9.71
20,TAATAAATAAAATAGAGTACAGGGATTTCATTAAAT [XGTACX_site8979],9.87
21,TATATTACTTATATTTGTACACAGAAATATAAATCA [XGTACX_site13],9.44
22,TTTTTCATAAGAAGCACACAAAAAATGATAGAGAAT [CACACA_site1417],9.74

row,Sequence,gcPBM binding intensity (ln)
1,TAATATGCATAAAATTGTACAAACTTACATATAATA [XGTACX_site2752],9.79
2,TTTTCTTGACCTATTATTCTTCTCATAGTATAATAT [GTGCAC_negctrl_site641],9.62
3,TTCATAGAATTATATATTTTAAAAAAAAAAATAATT [CACACA_negctrl_site175],9.31
4,TTTTTTATAGGACATGCATGTTGTAGAGCTGTATAT [TGCATGCA_site704],9.59
5,AATATATTTTAATATACACACATATATGCTCTTTAA [CACACA_site9371],9.82
6,TTATTTTTTTTGTGTTGTACAATTTATTACTACTAA [XGTACX_site346],9.76
7,AAACAAATATGTAGCACACATTCACATAATATATTT [CACACA_site2335],9.87
8,GTATTTATAATACGGCGTACATAAAAAAAAAAAAAA [XGTACX_site3705],9.41
9,TTATTTATGTGTAGGGCATGCAATCGTGTTTTTAAA [TGCATGCA_site735],9.72
10,AAAAAAAAAATATATTGTACAAATAGATATGTCAAT [XGTACX_site122],9.63
11,AAAGAAAGTACCTTCACACATATAAGAATATAATAT [CACACA_site5214],9.67
12,TGAAATACGAATTATTGTACTTATGTGTAAGATGGC [XGTACX_site4472],9.71
13,AAAAAAAAAAAAAAAAGTACACAGTAGAATTAAATG [XGTACX_site1843],9.65
14,TTTTTTTTTTAATTAACACACATAAATATATATATA [CACACA_site3275],9.49
15,GAACAATAAATAAAAAAAATAAAAATAAAAATAAAA [TGCATGCA_negctrl_site35],9.65
16,ATAAGTAAATTAGATACACACATGATATCATACATA [CACACA_site1623],9.91
17,TCAATAATAACAAATGAACACACATATATATGAGCA [CACACA_site8663],9.8
18,AGAAAAAAATAATGTACACACACATAGATGTTTATA [CACACA_site4271],10.4
19,AATATATTTGTGTATGTGCGCAGTGTGTAATTTATT [GTGCAC_site9765],10.1
20,CATCTCATATTTTGAAGTACTAAGAAAAGATATAAA [XGTACX_site6867],9.22
21,ATAAATTTTTTTTTTTTTTTTTTTCTTTTTCTTTGT [CACACA_negctrl_site1231],9.41
22,ACTAAAGTGTATCACTGTACAATTCTTCTCTTTTTT [XGTACX_site8705],9.71
